Assay results published in the supplement of paper PMC8728848.
This is one part of the list.

How the values were obtained:
Experiment in all cases: glycan array binding signal (z-score within array); higher = stronger binding
Conditions in all cases: glycan notation: IUPAC condensed, linker removed
[1] = biological target: Fuc(a1-2)[Gal(a1-3)]Gal(b1-3)GlcNAc(b1-3)GalNAc
Outline: (§1)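 Glycan array data came from 3228 arrays in the Consortium for Functional Glycomics database, and only arrays with an available protein sequence were kept. Glycan names were put into IUPAC-condensed notation, and columns mapping to the same glycan were averaged. The binding signal is a within-array Z-score, averaged across arrays of one protein sequence run at different concentrations or buffers and across linkers. A negative Z-score can be read as non-binding.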

[2] = biological target: Fuc(a1-2)[Gal(a1-3)]Gal(b1-4)Glc
Outline: as §1

[3] = biological target: Fuc(a1-2)[Gal(a1-3)]Gal(b1-4)GlcNAc
Outline: as §1

[4] = biological target: Fuc(a1-2)[Gal(a1-3)]Gal(b1-4)GlcNAc(b1-2)Man(a1-3)[Fuc(a1-2)[Gal(a1-3)]Gal(b1-4)GlcNAc(b1-2)Man(a1-6)]Man(b1-4)GlcNAc(b1-4)GlcNAc
Outline: as §1

[5] = biological target: Fuc(a1-2)[Gal(a1-3)]Gal(b1-4)GlcNAc(b1-2)Man(a1-3)[Fuc(a1-2)[Gal(a1-3)]Gal(b1-4)GlcNAc(b1-2)Man(a1-6)]Man(b1-4)GlcNAc(b1-4)[Fuc(a1-6)]GlcNAc
Outline: as §1

[6] = biological target: Fuc(a1-2)[Gal(a1-3)]Gal(b1-4)GlcNAc(b1-3)GalNAc
Outline: as §1

[7] = biological target: Fuc(a1-2)[Gal(a1-3)]Gal(b1-4)[Fuc(a1-3)]Glc
Outline: as §1

[8] = biological target: Fuc(a1-2)[Gal(a1-3)]Gal(b1-4)[Fuc(a1-3)]GlcNAc
Outline: as §1

[9] = biological target: Fuc(a1-2)[Gal(a1-3)]Gal(b1-4)[Fuc(a1-3)]GlcNAc(b1-3)GalNAc
Outline: as §1

[10] = biological target: Fuc(a1-2)[Gal(a1-4)]Gal(b1-4)GlcNAc
Outline: as §1

[11] = biological target: Fuc(a1-2)[GalNAc(a1-3)]Gal
Outline: as §1

[12] = biological target: Fuc(a1-2)[GalNAc(a1-3)]Gal(b1-3)GalNAc(a1-3)[Fuc(a1-2)]Gal(b1-4)GlcNAc
Outline: as §1

[13] = biological target: Fuc(a1-2)[GalNAc(a1-3)]Gal(b1-3)GlcNAc
Outline: as §1

[14] = biological target: Fuc(a1-2)[GalNAc(a1-3)]Gal(b1-3)GlcNAc(b1-2)Man(a1-3)[Fuc(a1-2)[GalNAc(a1-3)]Gal(b1-3)GlcNAc(b1-2)Man(a1-6)]Man(b1-4)GlcNAc(b1-4)GlcNAc
Outline: as §1

[15] = biological target: Fuc(a1-2)[GalNAc(a1-3)]Gal(b1-3)GlcNAc(b1-2)Man(a1-3)[Fuc(a1-2)[GalNAc(a1-3)]Gal(b1-3)GlcNAc(b1-2)Man(a1-6)]Man(b1-4)GlcNAc(b1-4)[Fuc(a1-6)]GlcNAc
Outline: as §1

[16] = biological target: Fuc(a1-2)[GalNAc(a1-3)]Gal(b1-3)GlcNAc(b1-3)GalNAc
Outline: as §1

[17] = biological target: Fuc(a1-2)[GalNAc(a1-3)]Gal(b1-4)Glc
Outline: as §1

[18] = biological target: Fuc(a1-2)[GalNAc(a1-3)]Gal(b1-4)GlcNAc
Outline: as §1

[19] = biological target: Fuc(a1-2)[GalNAc(a1-3)]Gal(b1-4)GlcNAc(b1-2)Man(a1-3)[Fuc(a1-2)[GalNAc(a1-3)]Gal(b1-4)GlcNAc(b1-2)Man(a1-6)]Man(b1-4)GlcNAc(b1-4)GlcNAc
Outline: as §1

[20] = biological target: Fuc(a1-2)[GalNAc(a1-3)]Gal(b1-4)GlcNAc(b1-2)Man(a1-3)[Fuc(a1-2)[GalNAc(a1-3)]Gal(b1-4)GlcNAc(b1-2)Man(a1-6)]Man(b1-4)GlcNAc(b1-4)[Fuc(a1-6)]GlcNAc
Outline: as §1

[21] = biological target: Fuc(a1-2)[GalNAc(a1-3)]Gal(b1-4)GlcNAc(b1-2)Man(a1-3)[GalNAc(a1-3)[Fuc(a1-2)]Gal(b1-4)GlcNAc(b1-2)Man(a1-6)]Man(b1-4)GlcNAc(b1-4)GlcNAc
Outline: as §1

[22] = biological target: Fuc(a1-2)[GalNAc(a1-3)]Gal(b1-4)GlcNAc(b1-3)Gal(b1-4)GlcNAc
Outline: as §1

[23] = biological target: Fuc(a1-2)[GalNAc(a1-3)]Gal(b1-4)GlcNAc(b1-3)Gal(b1-4)GlcNAc(b1-3)Gal(b1-4)GlcNAc
Outline: as §1

[24] = biological target: Fuc(a1-2)[GalNAc(a1-3)]Gal(b1-4)GlcNAc(b1-3)GalNAc
Outline: as §1

[25] = biological target: Fuc(a1-2)[GalNAc(a1-3)]Gal(b1-4)[Fuc(a1-3)]GlcNAc
Outline: as §1

[26] = biological target: Fuc(a1-2)[GalNAc(a1-3)]Gal(b1-4)[Fuc(a1-3)]GlcNAc(b1-3)GalNAc
Outline: as §1

[27] = biological target: Fuc(a1-2)[GalNAc(a1-4)]Gal(b1-4)GlcNAc
Outline: as §1

[28] = biological target: Fuc(a1-2)[GalNAc(b1-3)]Gal
Outline: as §1

[29] = biological target: Fuc(a1-3)GlcNAc
Outline: as §1

[30] = biological target: Fuc(a1-3)[Gal(b1-4)]Glc6S
Outline: as §1

[31] = biological target: Fuc(a1-3)[Gal(b1-4)]GlcNAc
Outline: as §1

[32] = biological target: Fuc(a1-3)[Gal(b1-4)]GlcNAc(b1-2)Man(a1-3)[Fuc(a1-3)[Gal(b1-4)]GlcNAc(b1-2)Man(a1-6)]Man(b1-4)GlcNAc(b1-4)GlcNAc
Outline: as §1

[33] = biological target: Fuc(a1-3)[Gal(b1-4)]GlcNAc(b1-2)Man(a1-3)[Fuc(a1-3)[Gal(b1-4)]GlcNAc(b1-2)Man(a1-6)]Man(b1-4)GlcNAc(b1-4)[Fuc(a1-6)]GlcNAc
Outline: as §1

[34] = biological target: Fuc(a1-3)[Gal(b1-4)]GlcNAc(b1-2)Man(a1-6)[Gal(b1-4)GlcNAc(b1-2)Man(a1-3)]Man(b1-4)GlcNAc(b1-4)GlcNAc
Outline: as §1

[35] = biological target: Fuc(a1-3)[Gal(b1-4)]GlcNAc(b1-3)Gal(b1-3)[Fuc(a1-4)]GlcNAc
Outline: as §1

[36] = biological target: Fuc(a1-3)[Gal(b1-4)]GlcNAc(b1-3)GalNAc
Outline: as §1

[37] = biological target: Fuc(a1-3)[Gal(b1-4)]GlcNAc(b1-4)Gal(b1-4)[Fuc(a1-3)]GlcNAc
Outline: as §1

[38] = biological target: Fuc(a1-3)[Gal(b1-4)]GlcNAc(b1-4)Gal(b1-4)[Fuc(a1-3)]GlcNAc(b1-4)Gal(b1-4)[Fuc(a1-3)]GlcNAc
Outline: as §1

[39] = biological target: Fuc(a1-3)[Gal(b1-4)]GlcNAc(b1-6)GalNAc
Outline: as §1

[40] = biological target: Fuc(a1-3)[Gal(b1-4)]GlcNAc(b1-6)[Gal(b1-3)GlcNAc(b1-3)]Gal(b1-4)Glc
Outline: as §1

[41] = biological target: Fuc(a1-3)[Gal(b1-4)]GlcNAc(b1-6)[Neu5Ac(a2-3)Gal(b1-3)]GalNAc
Outline: as §1

[42] = biological target: Fuc(a1-3)[Gal(b1-4)]GlcNAc6S
Outline: as §1

[43] = biological target: Fuc(a1-3)[Gal3S(b1-4)]Glc6S
Outline: as §1

[44] = biological target: Fuc(a1-3)[Gal3S(b1-4)]GlcNAc
Outline: as §1

[45] = biological target: Fuc(a1-3)[Gal3S(b1-4)]GlcNAc6S
Outline: as §1

B1: BC2L-D C-terminal domain (Burkholderia cenocepacia), Q39MQ9_BURS3 (protein)
chain: LVIVDAVTLLSAYPEASRDPAAPTVIDGRHLYVVSPGDAAQLGHNDSRLFTGLSPGDQLHLRETALALRAEVSVLFIRFALKDAGIVAPIELEVRDAATAVPDADDLLHPSCRPLKDHYWRSDVLAAGATTCTADFAVCDRDGTVSGYFRWETSIEIAGSQPDTKQPGFKPSSDRNGNFSLPPNTAFKAIFYANAADRQDLKLFIDDAPEPAATFVGNSEDGVRLFTLNSKGGKIRIEASANGRQSATDARLAPLSAGDTVWLGWLGAEDGADADYNDGIVILQWPIT
B1 was tested, and the “glycan array binding signal (z-score)” value [1] was -0.17, the “glycan array binding signal (z-score)” value [2] was -0.243 and the “glycan array binding signal (z-score)” value [3] was -0.243. For the same binder, the “glycan array binding signal (z-score)” value [4] was -0.167, the “glycan array binding signal (z-score)” value [5] was 0.051 and the “glycan array binding signal (z-score)” value [6] was -0.161. The “glycan array binding signal (z-score)” value [7] was -0.166, the “glycan array binding signal (z-score)” value [8] was -0.104 and the “glycan array binding signal (z-score)” value [9] was -0.158. For the same binder, the “glycan array binding signal (z-score)” value [10] was -0.194, the “glycan array binding signal (z-score)” value [11] was -0.238 and the “glycan array binding signal (z-score)” value [12] was -0.169. For the same binder, the “glycan array binding signal (z-score)” value [13] was -0.229, the “glycan array binding signal (z-score)” value [14] was -0.129 and the “glycan array binding signal (z-score)” value [15] was 0.417. The “glycan array binding signal (z-score)” value [16] was -0.163, the “glycan array binding signal (z-score)” value [17] was -0.244 and the “glycan array binding signal (z-score)” value [18] was -0.244. The “glycan array binding signal (z-score)” value [19] was -0.153, the “glycan array binding signal (z-score)” value [20] was 0.161 and the “glycan array binding signal (z-score)” value [21] was -0.237. The “glycan array binding signal (z-score)” value [22] was -0.242, the “glycan array binding signal (z-score)” value [23] was -0.232 and the “glycan array binding signal (z-score)” value [24] was -0.163. The “glycan array binding signal (z-score)” value [25] was -0.209, the “glycan array binding signal (z-score)” value [26] was -0.159 and the “glycan array binding signal (z-score)” value [27] was -0.166. For the same binder, the “glycan array binding signal (z-score)” value [28] was -0.242, the “glycan array binding signal (z-score)” value [29] was -0.007 and the “glycan array binding signal (z-score)” value [30] was -0.211. For the same binder, the “glycan array binding signal (z-score)” value [31] was -0.214, the “glycan array binding signal (z-score)” value [32] was -0.129 and the “glycan array binding signal (z-score)” value [33] was -0.161. The “glycan array binding signal (z-score)” value [34] was -0.311, the “glycan array binding signal (z-score)” value [35] was 0.288 and the “glycan array binding signal (z-score)” value [36] was -0.164. For the same binder, the “glycan array binding signal (z-score)” value [37] was 0.049, the “glycan array binding signal (z-score)” value [38] was 0.024 and the “glycan array binding signal (z-score)” value [39] was -0.164. The “glycan array binding signal (z-score)” value [40] was -0.165, the “glycan array binding signal (z-score)” value [41] was -0.16 and the “glycan array binding signal (z-score)” value [42] was -0.222. The “glycan array binding signal (z-score)” value [43] was -0.257, the “glycan array binding signal (z-score)” value [44] was -0.258 and the “glycan array binding signal (z-score)” value [45] was -0.229.
